{"source": "the GPR68 mutational scans of Howard et al. (2025)", "parents": {"B1": {"name": "GPR68, Q15743 (parent)", "chain": "MGNITADNSSMSCTIDHTIHQTLAPVVYVTVLVVGFPANCLSLYFGYLQIKARNELGVYLCNLTVADLFYICSLPFWLQYVLQHDNWSHGDLSCQVCGILLYENIYISVGFLCCISVDRYLAVAHPFRFHQFRTLKAAVGVSVVIWAKELLTSIYFLMHEEVIEDENQHRVCFEHYPIQAWQRAINYYRFLVGFLFPICLLLASYQGILRAVRRSHGTQKSRKDQIQRLVLSTVVIFLACFLPYHVLLLVRSVWEASCDFAKGVFNAYHFSLLLTSFNCVADPVLYCFVSETTHRDLARLRGACLAFLTCSRTGRAREAYPLGAPEASGKSGAQGEEPELLTKLHPAFQTPNSPGSGGFPTGRLA"}}, "key": {"[1]": {"variants_of": "B1", "test": "cAMP reporter score (Enrich2 score, wild type = 0); higher = more signal; HEK293T, FACS bins"}, "[2]": {"variants_of": "B1", "test": "surface expression score (Enrich2 score, wild type = 0); higher = more signal; HEK293T, FACS bins"}}, "note": "Scores whose standard error is large were omitted. Two further conditions of the source, in which the scores hardly spread, are not listed. In variant names, del marks residues removed and ins residues inserted between the two positions. For part of these data: How much ogerin was present is not stated here.", "data": [{"variant": "MGNITADNSSMSCTIDHTIHQTLAPVVYVTVLVVGFPANCLSLYFGYLQIKARNELGVYLCNLTVADLFYICSLPFWLQYVLQHDNWSHGDLSCQVCGILLYENIYISVGFLCCISVDRYLAVAHPFRFHQFRTLKAAWGVSVVIWAKELLTSIYFLMHEEVIEDENQHRVCFEHYPIQAWQRAINYYRFLVGFLFPICLLLASYQGILRAVRRSHGTQKSRKDQIQRLVLSTVVIFLACFLPYHVLLLVRSVWEASCDFAKGVFNAYHFSLLLTSFNCVADPVLYCFVSETTHRDLARLRGACLAFLTCSRTGRAREAYPLGAPEASGKSGAQGEEPELLTKLHPAFQTPNSPGSGGFPTGRLA", "note": "[V139W]", "values": [{"measurement": "cAMP reporter score", "setting": "[1]; pH 5.5", "value": 0.408}, {"measurement": "cAMP reporter score", "setting": "[1]; pH 6, modulator: ogerin", "value": 0.919}, {"measurement": "cAMP reporter score", "setting": "[1]; pH 6.5, modulator: ogerin", "value": 1.1}, {"measurement": "surface expression score", "setting": "[2]", "value": 0.962}]}, {"variant": "MGNITADNSSMSCTIDHTIHQTLAPVVYVTVLVVGFPANCLSLYFGYLQIKARNELGVYLCNLTVADLFYICSLPFWLQYVLQHDNWSHGDLSCQVCGILLYENIYISVGFLCCISVDRYLAVAHPFRFHQFRTLKAASGVSVVIWAKELLTSIYFLMHEEVIEDENQHRVCFEHYPIQAWQRAINYYRFLVGFLFPICLLLASYQGILRAVRRSHGTQKSRKDQIQRLVLSTVVIFLACFLPYHVLLLVRSVWEASCDFAKGVFNAYHFSLLLTSFNCVADPVLYCFVSETTHRDLARLRGACLAFLTCSRTGRAREAYPLGAPEASGKSGAQGEEPELLTKLHPAFQTPNSPGSGGFPTGRLA", "note": "[V139S]", "values": [{"measurement": "cAMP reporter score", "setting": "[1]; pH 5.5", "value": -0.073}, {"measurement": "cAMP reporter score", "setting": "[1]; pH 6, modulator: ogerin", "value": -0.337}, {"measurement": "cAMP reporter score", "setting": "[1]; pH 6.5, modulator: ogerin", "value": -0.787}, {"measurement": "surface expression score", "setting": "[2]", "value": -1.19}]}, {"variant": "MGNITADNSSMSCTIDHTIHQTLAPVVYVTVLVVGFPANCLSLYFGYLQIKARNELGVYLCNLTVADLFYICSLPFWLQYVLQHDNWSHGDLSCQVCGILLYENIYISVGFLCCISVDRYLAVAHPFRFHQFRTLKAAYGVSVVIWAKELLTSIYFLMHEEVIEDENQHRVCFEHYPIQAWQRAINYYRFLVGFLFPICLLLASYQGILRAVRRSHGTQKSRKDQIQRLVLSTVVIFLACFLPYHVLLLVRSVWEASCDFAKGVFNAYHFSLLLTSFNCVADPVLYCFVSETTHRDLARLRGACLAFLTCSRTGRAREAYPLGAPEASGKSGAQGEEPELLTKLHPAFQTPNSPGSGGFPTGRLA", "note": "[V139Y]", "values": [{"measurement": "cAMP reporter score", "setting": "[1]; pH 5.5", "value": -0.105}, {"measurement": "cAMP reporter score", "setting": "[1]; pH 6", "value": 0.069}, {"measurement": "cAMP reporter score", "setting": "[1]; pH 6, modulator: ogerin", "value": 0.151}, {"measurement": "cAMP reporter score", "setting": "[1]; pH 6.5, modulator: ogerin", "value": -0.538}, {"measurement": "surface expression score", "setting": "[2]", "value": -0.496}]}, {"variant": "MGNITADNSSMSCTIDHTIHQTLAPVVYVTVLVVGFPANCLSLYFGYLQIKARNELGVYLCNLTVADLFYICSLPFWLQYVLQHDNWSHGDLSCQVCGILLYENIYISVGFLCCISVDRYLAVAHPFRFHQFRTLKAATGVSVVIWAKELLTSIYFLMHEEVIEDENQHRVCFEHYPIQAWQRAINYYRFLVGFLFPICLLLASYQGILRAVRRSHGTQKSRKDQIQRLVLSTVVIFLACFLPYHVLLLVRSVWEASCDFAKGVFNAYHFSLLLTSFNCVADPVLYCFVSETTHRDLARLRGACLAFLTCSRTGRAREAYPLGAPEASGKSGAQGEEPELLTKLHPAFQTPNSPGSGGFPTGRLA", "note": "[V139T]", "values": [{"measurement": "cAMP reporter score", "setting": "[1]; pH 5.5", "value": -0.365}, {"measurement": "cAMP reporter score", "setting": "[1]; pH 6", "value": -0.214}, {"measurement": "cAMP reporter score", "setting": "[1]; pH 6, modulator: ogerin", "value": 0.234}, {"measurement": "surface expression score", "setting": "[2]", "value": -0.879}]}, {"variant": "MGNITADNSSMSCTIDHTIHQTLAPVVYVTVLVVGFPANCLSLYFGYLQIKARNELGVYLCNLTVADLFYICSLPFWLQYVLQHDNWSHGDLSCQVCGILLYENIYISVGFLCCISVDRYLAVAHPFRFHQFRTLKAARGVSVVIWAKELLTSIYFLMHEEVIEDENQHRVCFEHYPIQAWQRAINYYRFLVGFLFPICLLLASYQGILRAVRRSHGTQKSRKDQIQRLVLSTVVIFLACFLPYHVLLLVRSVWEASCDFAKGVFNAYHFSLLLTSFNCVADPVLYCFVSETTHRDLARLRGACLAFLTCSRTGRAREAYPLGAPEASGKSGAQGEEPELLTKLHPAFQTPNSPGSGGFPTGRLA", "note": "[V139R]", "values": [{"measurement": "cAMP reporter score", "setting": "[1]; pH 5.5", "value": -0.385}, {"measurement": "cAMP reporter score", "setting": "[1]; pH 6", "value": 2.38}, {"measurement": "cAMP reporter score", "setting": "[1]; pH 6, modulator: ogerin", "value": -0.048}, {"measurement": "cAMP reporter score", "setting": "[1]; pH 6.5, modulator: ogerin", "value": -0.426}]}]}
